# From PubChem BioAssay (NCATS)
# Inconclusive means that the source gave no clear call. Such entries were picked first, then a sample of the others. A call without a number means that no potency is given here. For part of these data: Potencies beside an inconclusive call are fits to weak or partial responses and may not hold up. Activity calls are given as the source filed them. Unless noted, calls follow the shape of the dose curve; as a rule, active = well fitted curve in the direction sought with a large enough effect; inconclusive = small, poorly fitted or top-dose-only effect, or another doubt; inactive = no such curve, though single readings can be large; an effect the other way counts as inactive or inconclusive.
# Key:
# [1] = Primary qHTS for inhibitors of nuclear receptor binding SET domain protein 2 (NSD2) in an isogenic RCH-ACV NSD2 p.E1099K mutant (9B) (AID 1645876); details: activity change, negative = viability loss: at 44.9 µM (top of the series) unless noted; also: nearly all actives have a fitted effect of over 70% in size; also: potency is read from the fitted curve at half-maximal effect
# CAOV3 = assay: Primary qHTS to identify gynecologic anti-cancer compounds using libraries of approved drugs and bioactive compounds (AID 1345084); details: Gynecologic cancer cell panel viability, ATPlite luminescence, 48 h; series mostly up to 57.5 µM; also: nearly all actives have a fitted effect of over 55% in size; also: potency is read from the fitted curve at half-maximal effect
# In short: (§1)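 Cell viability after 48 h drug treatment, ATPlite luminescence readout; five doses.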
# [2] = Primary qHTS for inhibitors of nuclear receptor binding SET domain protein 2 (NSD2) in an RCH-ACV wild type WT cells (2C) (AID 1645877); details: activity change, negative = cell killing: at 44.9 µM (top of the series) unless noted; also: nearly all actives have a fitted effect of over 70% in size; also: potency is read from the fitted curve at half-maximal effect
# [3] = target: Phospholipid hydroperoxide glutathione peroxidase GPX4 (Homo sapiens) (UniProt P36969); assay: Primary qHTS Assay for Inhibitors of Recombinant Selenoprotein Glutathione Peroxidase 4 (GPX4) (AID 1845192); details: activity change, negative = inhibition: at 50 µM (top of the series) unless noted; also: nearly all actives have a fitted effect of over 65% in size
# Chain of UniProt P36969 (P36969 whole entry, looked up): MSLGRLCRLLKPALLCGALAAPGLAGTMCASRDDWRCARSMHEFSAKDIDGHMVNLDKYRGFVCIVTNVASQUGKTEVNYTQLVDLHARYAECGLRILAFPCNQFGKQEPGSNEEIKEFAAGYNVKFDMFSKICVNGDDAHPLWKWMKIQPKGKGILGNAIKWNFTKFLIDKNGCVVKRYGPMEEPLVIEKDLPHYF
# In short: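 GR-coupled assay: recombinant GPX4 preincubated 30 min with compound at room temperature; final 200 nM GPX4, 1 mM GSH, 0.5 mM cumene hydroperoxide, 0.5 mM NADPH, 100 nM GR, 0.01% BSA, pH 7.5 Tris. NADPH fluorescence (340/450 nm) read at 0 and 15 min.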
# [4] = tested on: Zika virus NS2B-NS3 protease (unlinked complex); assay: Primary screen GU Rhodamine qHTS for Zika virus inhibitors: Unlinked NS2B-NS3 protease assay (AID 1347159); details: Recombinant ZIKV NS2B-NS3 protease, Rhodamine110 substrate fluorescence; activity change, negative = inhibition: at 107 µM (top of the series); also: nearly all actives have a fitted effect of over 60% in size; also: potency is read from the fitted curve at half-maximal effect
# In short: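 Percent inhibition derives from the 15-min fluorescence change (ex 480, em 540 nm), normalized to no-enzyme and no-inhibitor wells. Reactions contained 25 nM NS2B-NS3 complex and 1.5 microM substrate in 10 mM Tris-HCl pH 8.0.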
# [5] = Primary redox qHTS assay for identification of artifact compounds. (AID 1845223)
# In short: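 Amplex Red (25 uM) and HRP (250 mU/mL) in HBSS, with compounds for 15 min, then 250 uM DTT for 30 min, room temperature, dark. Fluorescence 525/598 nm read; normalized to DMSO and 10 uM DA3003; Hill fit.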
# [6] = tested on: Zika virus NS2B-NS3 protease (linked construct); assay: Primary screen NINDS Rhodamine qHTS for Zika virus inhibitors (AID 1347160); also: nearly all actives have a fitted effect of over 55% in size; also: potency is read from the fitted curve at half-maximal effect
# In short: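 In 10 mM Tris-HCl pH 8.0 containing 0.01% Tween 20, linked NS2B-NS3 protease (25 nM final) is exposed to test compounds for 15 min. Cleavage of 1.5 microM Rhodamine110 substrate is tracked by fluorescence over 15 min.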
# [7] = Primary fluorescence-based thiol-reactive (MSTI) qHTS assay for identification of artifact compounds. (AID 1845221); also: potency is read from the fitted curve at half-maximal effect;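 also: thiol-reactive compounds lower the probe fluorescence signal; nearly all actives have a fitted effect of over 65% in size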
# In short: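 Probe: MSTI 4 uM, PBS pH 7.4, 2% DMSO. Incubation 1 h, RT, light-protected. Readout fluorescence 525/598 nm.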
# [8] = qHTS of pediatric cancer cell lines to identify multiple opportunities for drug repurposing: Primary screen for SK-N-SH cells (AID 1347098);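 also: DMSO served as neutral control and bortezomib at 2.3 µM as positive control; nearly all actives have a fitted effect of over 65% in size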
# In short: (§2)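 Cells (500-1,000/well) rested 5 h, then received compounds for 48 h; metabolically active cells were measured by CellTiter-Glo luminescence. Final concentrations spanned up to 46 µM (MIPE, 11-point) or 0.59 nM-46 µM (NPC, 8-point) in primary screens, 11-point in follow-ups.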
# [9] = qHTS of pediatric cancer cell lines to identify multiple opportunities for drug repurposing: Primary screen for SJ-GBM2 cells (AID 1347091)
# In short: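 Viability measured as metabolically active cells via CellTiter-Glo luminescence following 48 hours of compound exposure, 11-point dilutions in confirmatory testing. 500-1,000 cells/well plated 5 hours before dosing; controls were DMSO and 2.3 µM bortezomib.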
# [10] = qHTS of pediatric cancer cell lines to identify multiple opportunities for drug repurposing: Primary screen for U-2 OS cells (AID 1347096); also: nearly all actives have a fitted effect of over 50% in size
# In short: (§3)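 Viability after 48 h compound treatment at 37C, 500-1,000 cells/well, read as ATP luminescence with CellTiter-Glo. Primary screens used 11-point (MIPE, 0.78 nM-46 µM) or 8-point (NPC, 0.59 nM-46 µM) final concentrations; follow-up screens used 11-point dilutions.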
# [11] = qHTS of pediatric cancer cell lines to identify multiple opportunities for drug repurposing: Primary screen for LAN-5 cells (AID 1347100)
# In short: as §3
# [12] = qHTS of pediatric cancer cell lines to identify multiple opportunities for drug repurposing: Primary screen for control Hh wild type fibroblast cells (AID 1347106)
# In short: as §3
# [13] = qHTS to identify inhibitors of the type 1 interferon - major histocompatibility complex class I in skeletal muscle: primary screen against the NCATS Pharmaceutical Collection (AID 1347407);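 also: luminescence of HiBiT knocked into endogenous HLA-B as interferon-induced MHC class I level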
# In short: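 Immortalized human myoblasts (C25cl48) with HiBiT knocked into endogenous HLA-B*08:01 were stimulated with 4 ng/ml IFN-beta and treated with compounds (8-point, 1:5, top 46 uM final) for 24 h at 37 C; HiBiT lytic luminescence read.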
# [14] = target: Protein phosphatase 1D (Homo sapiens) (UniProt O15297); assay: Rhodamine-PBP qHTS Assay for Modulators of WT P53-Induced Phosphatase 1 (WIP1) (AID 1347425)
# Chain of UniProt O15297 (O15297 whole entry, looked up): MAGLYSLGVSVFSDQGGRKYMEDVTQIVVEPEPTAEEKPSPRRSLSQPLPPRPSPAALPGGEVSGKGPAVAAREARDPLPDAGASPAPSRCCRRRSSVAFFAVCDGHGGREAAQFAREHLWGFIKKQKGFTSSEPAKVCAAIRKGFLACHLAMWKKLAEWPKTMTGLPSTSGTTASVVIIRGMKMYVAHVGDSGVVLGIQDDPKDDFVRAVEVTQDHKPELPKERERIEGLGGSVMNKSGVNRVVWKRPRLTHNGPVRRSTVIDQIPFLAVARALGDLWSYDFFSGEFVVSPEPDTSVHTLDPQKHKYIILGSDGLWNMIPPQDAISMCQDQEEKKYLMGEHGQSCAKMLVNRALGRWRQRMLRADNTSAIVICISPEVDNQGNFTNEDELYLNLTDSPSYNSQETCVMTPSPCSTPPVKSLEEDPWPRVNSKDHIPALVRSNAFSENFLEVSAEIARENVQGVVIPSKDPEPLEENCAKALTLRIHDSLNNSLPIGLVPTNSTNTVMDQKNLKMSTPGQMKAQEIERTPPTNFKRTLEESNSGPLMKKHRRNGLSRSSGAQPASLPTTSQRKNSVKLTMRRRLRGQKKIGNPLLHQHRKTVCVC
# In short: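 The read-out is the change in Rhodamine-PBP fluorescence (f1 - f0, ex 525/em 598 nm) as Pi is released, read each minute for 11 min. Final reaction: 5 nM WIP1, 10 uM phosphopeptide VEPPL-pS-QETFS, 10 uM Rh-PBP, 50 mM Tris-HCl pH 7.5, 30 mM MgCl2. Compound was preincubated with enzyme for 1 hour at room temperature.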
# [15] = Primary qHTS for small molecule stabilizers of the endoplasmic reticulum resident proteome: Secreted ER Calcium Modulated Protein (SERCaMP) assay (AID 1508630); details: SH-SY5Y GLuc-SERCaMP (Gaussia luciferase released on ER calcium loss) secretion, thapsigargin, luminescence; activity change, negative = inhibition: at 38.4 µM (top of the series) unless noted; also: potency is read from the fitted curve at half-maximal effect
# In short: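 GLuc-SERCaMP-expressing SH-SY5Y cells, pretreated 16 h with compound, are challenged with thapsigargin to empty ER calcium stores; after 4 h, coelenterazine is added directly to the medium and luminescence is imaged.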
# [16] = target: Cytochrome P450 2D6 (Homo sapiens) (UniProt P10635); assay: Cytochrome P450 family 2 subfamily D member 6 (CYP2D6) small molecule antagonists: luciferase biochemical (cell-free) qHTS assay (AID 1645840; active = well fitted curve in the direction sought with a large enough effect in the repeat runs; inconclusive = weak or mixed curves; inactive = no such curve, though single readings can be large; an effect the other way counts as inactive or inconclusive; also: nearly all actives have a fitted effect of over 55% in size; also: potency is read from the fitted curve at half-maximal effect)
# Chain of UniProt P10635 (P10635 whole entry, looked up): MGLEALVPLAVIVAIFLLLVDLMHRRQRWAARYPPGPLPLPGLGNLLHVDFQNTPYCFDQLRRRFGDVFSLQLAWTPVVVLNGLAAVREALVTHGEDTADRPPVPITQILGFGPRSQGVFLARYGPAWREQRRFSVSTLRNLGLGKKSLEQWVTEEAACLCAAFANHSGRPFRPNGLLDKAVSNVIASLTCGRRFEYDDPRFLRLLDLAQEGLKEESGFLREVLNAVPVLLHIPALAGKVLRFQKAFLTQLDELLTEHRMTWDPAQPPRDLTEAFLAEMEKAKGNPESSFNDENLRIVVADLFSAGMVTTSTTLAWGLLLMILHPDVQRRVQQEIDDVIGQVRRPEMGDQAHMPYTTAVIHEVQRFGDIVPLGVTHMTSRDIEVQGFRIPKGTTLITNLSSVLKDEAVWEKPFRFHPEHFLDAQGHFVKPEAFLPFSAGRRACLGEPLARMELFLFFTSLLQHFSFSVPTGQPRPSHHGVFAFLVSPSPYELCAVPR
# In short: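 P450-Glo luminescent screen: recombinant CYP2D6 enzyme–proluciferin substrate mix preincubated with compound 10 min at room temperature, then NADPH regeneration added for 1 h at room temperature. Detection reagent added for 20 min; luciferin light read as relative luminescence units.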
# CASKI = assay: Primary qHTS to identify gynecologic anti-cancer compounds using libraries of approved drugs and bioactive compounds (AID 1345084); details: Gynecologic cancer cell panel viability, ATPlite luminescence, 48 h; series mostly up to 57.5 µM; also: nearly all actives have a fitted effect of over 55% in size; also: potency is read from the fitted curve at half-maximal effect
# In short: as §1
# JEG-3 = assay: as above; details: Gynecologic cancer cell panel viability, ATPlite luminescence, 48 h; series mostly up to 57.5 µM
# In short: as §1
# Hek293T = assay: as above; details: Gynecologic cancer cell panel viability, ATPlite luminescence, 48 h, control line for the selectivity index; series mostly up to 57.5 µM
# In short: as §1
# PA-1 = assay: as above; details: Gynecologic cancer cell panel viability, ATPlite luminescence, 48 h; series mostly up to 57.5 µM
# In short: as §1
# [17] = target: Cytochrome P450 2C9 (Homo sapiens) (UniProt P11712); assay: Cytochrome P450 family 2 subfamily C member 9 (CYP2C9) small molecule antagonists: luciferase biochemical (cell-free) qHTS assay (AID 1645842; active = well fitted curve in the direction sought with a large enough effect in the repeat runs; inconclusive = weak or mixed curves; inactive = no such curve, though single readings can be large; an effect the other way counts as inactive or inconclusive)
# Chain of UniProt P11712 (P11712 whole entry, looked up): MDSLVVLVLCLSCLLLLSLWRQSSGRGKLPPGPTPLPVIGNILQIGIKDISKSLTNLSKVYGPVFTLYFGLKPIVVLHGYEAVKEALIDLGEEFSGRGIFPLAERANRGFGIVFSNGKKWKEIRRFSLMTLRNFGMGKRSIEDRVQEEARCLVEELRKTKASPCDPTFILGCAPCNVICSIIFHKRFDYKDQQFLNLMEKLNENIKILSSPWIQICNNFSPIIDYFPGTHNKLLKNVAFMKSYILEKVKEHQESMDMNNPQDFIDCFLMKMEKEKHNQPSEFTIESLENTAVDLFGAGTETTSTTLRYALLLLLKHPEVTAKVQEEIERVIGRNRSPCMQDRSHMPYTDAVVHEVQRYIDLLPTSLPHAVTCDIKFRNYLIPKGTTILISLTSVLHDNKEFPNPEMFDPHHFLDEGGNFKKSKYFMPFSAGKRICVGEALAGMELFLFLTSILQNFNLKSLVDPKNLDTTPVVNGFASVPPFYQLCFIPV
# In short: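 Luminescence, after 20 min with luciferin detection reagent, reflected CYP2C9 turnover during a 1 h NADPH-driven reaction at 37C. Enzyme-substrate mix contained 0.4% bovine serum albumin and was preincubated with compound 10 min at room temperature.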
# HeLa = assay: Primary qHTS to identify gynecologic anti-cancer compounds using libraries of approved drugs and bioactive compounds (AID 1345084); details: Gynecologic cancer cell panel viability, ATPlite luminescence, 48 h; series mostly up to 57.5 µM; also: nearly all actives have a fitted effect of over 55% in size; also: potency is read from the fitted curve at half-maximal effect
# In short: as §1
# [18] = qHTS of pediatric cancer cell lines to identify multiple opportunities for drug repurposing: Primary screen for BT-12 cells (AID 1347101); also: nearly all actives have a fitted effect of over 25% in size
# In short: as §2
# [19] = qHTS of pediatric cancer cell lines to identify multiple opportunities for drug repurposing: Primary screen for Rh18 cells (AID 1347102); also: nearly all actives have a fitted effect of over 65% in size
# In short: as §3
# [20] = qHTS of pediatric cancer cell lines to identify multiple opportunities for drug repurposing: Primary screen for OHS-50 cells (AID 1347103); details: OHS-50 osteosarcoma viability, CellTiter-Glo luminescence, 48 h; series mostly up to 57.3 µM; also: potency is read from the fitted curve at half-maximal effect; nearly all actives have a fitted effect of over 40% in size
# In short: as §2
# Tags tell the direction and shape of the fitted curve.
smiles,measurement,setting,value
C/C=C(/C)C(=O)O[C@H]1C[C@]2(C)O[C@@H]2[C@@H](OC(C)=O)[C@@]2(C)CC[C@@](O)(C(C)C)[C@H]12,Potency,[1],inactive
same,Potency,CAOV3,inactive
CC1=CC(=O)C[C@H]2[C@@H]1CC[C@@H](C)[C@]21CO[C@H](c2ccoc2)C1=O,Potency,[2],inactive
same,Potency,[3],inactive
same,Potency,CAOV3,"inconclusive: 14.1 µM [cytotoxic, single point]"
CCOC(=O)CCC(=O)O[C@H]1[C@H](O[C@@H]2[C@@H](C)[C@H](O[C@H]3C[C@@](C)(OC)[C@@H](O)[C@H](C)O3)[C@@H](C)C(=O)O[C@H](CC)[C@@](C)(O)[C@H](O)[C@@H](C)C(=O)[C@H](C)CC2(C)O)O[C@H](C)C[C@@H]1N(C)C (stereo not given in full),Potency,[2],inactive
same,Potency,CAOV3,"inconclusive: 39.8 µM [rising, single point]"
CC(C(=O)Nc1cc(C#N)ccc1CCCC(=O)O)c1ccc(F)c2ccccc12 (stereo not given),Potency,[4],"inconclusive: 28.2 µM [inhibitor, full curve]"
same,Potency,[1],inactive
same,Potency,CAOV3,inactive
COC(=O)/C=C/c1ccc(O[C@@H]2O[C@H](CO)[C@@H](O)[C@H](O)[C@H]2O)cc1,Potency,[1],"inconclusive: 11.3 µM [inhibitor, partial curve]"
same,Potency,[3],inactive
same,Potency,[5],inactive
same,Potency,CAOV3,"inconclusive: 11.2 µM [rising, single point]"
COC12CC3C(C(C)C1=CC(=O)O2)C(O)C(OC(C)=O)C1C(C)(C)C(OC(C)=O)CCC31C (stereo not given),Potency,[6],inactive
same,Potency,[1],inactive
same,Potency,[7],inactive
same,Potency,CAOV3,inactive
COc1cc(OC)nc(O[C@H](C(=O)O)C(OC)(c2ccccc2)c2ccccc2)n1,Potency,[8],inactive
same,Potency,[1],"inconclusive: 26.6 µM [inhibitor, single point]"
same,Potency,[2],"inconclusive: 26.6 µM [inhibitor, single point]"
same,Potency,CAOV3,inactive
CC(C)CC(=O)OC[C@H]1O[C@@](COC(=O)CC(C)C)(O[C@H]2O[C@H](CO)[C@@H](O)[C@H](O)[C@H]2O)[C@@H](OC(=O)CC(C)C)[C@@H]1OC(=O)CC(C)C,Potency,[4],"inconclusive: 6.31 µM [inhibitor, full curve]"
same,Potency,[7],"inconclusive: 6.3 µM [inhibitor, partial curve, poor fit]"
same,Potency,CAOV3,inactive
COc1cc(S(N)(=O)=O)cc(C(=O)O)c1OC,Potency,[9],inactive
same,Potency,[10],inactive
same,Potency,[11],inactive
same,Potency,[12],inactive
same,Potency,[13],inactive
same,Potency,[14],inactive
same,Potency,[15],"inconclusive: 35.5 µM [inhibitor, partial curve, poor fit]"
same,Potency,[16],inactive
same,Potency,CASKI,inactive
same,Potency,JEG-3,inactive
O=C(NCc1ccc(F)cc1)C(=O)c1c[nH]c2ccccc12,Potency,[4],inactive
same,Potency,[16],"inconclusive: 12 µM [inhibitor, partial curve]"
same,Potency,[1],"inconclusive: 23 µM [inhibitor, partial curve]"
same,Potency,[2],"inconclusive: 5.78 µM [inhibitor, partial curve, poor fit]"
same,Potency,CASKI,inactive
same,Potency,Hek293T,inactive
same,Potency,PA-1,"inconclusive: 1.58 µM [cytotoxic, partial curve]"
O=[N+]([O-])c1cn2c(n1)OCC(OCc1ccc(OC(F)(F)F)cc1)C2 (stereo not given),Potency,[16],inactive
same,Potency,[17],"inconclusive: 37.9 µM [inhibitor, single point]"
same,Potency,[1],"inconclusive: 18.3 µM [inhibitor, partial curve, poor fit]"
same,Potency,[2],"inconclusive: 16.3 µM [inhibitor, partial curve, poor fit]"
same,Potency,[7],"inconclusive: 3.36 µM [inhibitor, partial curve]"
same,Potency,CASKI,inactive
same,Potency,HeLa,inactive
CC(C)=CCc1cc(O[C@@H]2O[C@H](CO[C@@H]3OC[C@](O)(CO)[C@H]3O)[C@@H](O)[C@H](O)[C@H]2O)ccc1O,Potency,[6],"inconclusive: 15.8 µM [inhibitor, single point]"
same,Potency,[7],"inconclusive: 13 µM [inhibitor, partial curve]"
same,Potency,CASKI,inactive
same,Potency,Hek293T,inactive
CN1C(CSCC(F)(F)F)Nc2cc(Cl)c(S(N)(=O)=O)cc2S1(=O)=O (stereo not given),Potency,[18],inactive
same,Potency,[19],inactive
same,Potency,[20],"inconclusive: 43.7 µM [cytotoxic, partial curve, poor fit]"
same,Potency,[15],"inconclusive: 5.01 µM [inhibitor, partial curve, poor fit]"
same,Potency,[2],inactive
same,Potency,CASKI,inactive
same,Potency,Hek293T,inactive
